First the molecules themselves.
B1: LINE1-mini (parent)
chain: GGCAGAGCUCAACACAGCGUGGCAAAGUGGCUGUGGCUAGACUGCC

Results on 56 variants are retold here after the RNAGym collection of RNA variant scans (doi:10.7554/elife.90254).

Read counts are not given, so values of variants with three or more changes are uncertain.

Variants of B1 are the subject of this data set. Description: self-cleavage, relative activity (ratio to wild type); higher = more cleavage; in vitro, sequencing; the parent is a self-cleaving ribozyme.
Consider GGCAGAGCUCUCCACGGCGUGGCAAAGUGGCUCUGGCUAGACUGCC [A11U A12C A16G G33C], for which the self-cleavage came to 0.02.

On to GGCAGAGCUCUUUACAUCGUGGCAAAGUGGCUGUGGCUAGCCUGCC [A11U A12U C13U G17U A41C], for which the self-cleavage turned out to be 0.01.

On to GGCAGAGCUCGACACAGCGUGGCAAAGUUGCUUUGGCUAGACUUCC [A11G G29U G33U G44U], for which the self-cleavage was 0.01.

Turning to GGCAGAGCUCGACAUAGCGUGGCAAAGUGGCUGUGGCUAGAAUGCC [A11G C15U C42A], the self-cleavage stood at 0.

Take GGCAGAGCUCUCCACAGCGUGGCUAAGUGGCUGUGGCUAGACUGCC [A11U A12C A24U]: the self-cleavage came to 0.01.

Take GGCAGAGCUCGACACAGCGUGGCAGAGUGACAGUGGCUAGAUUGAC [A11G A25G G30A U32A C42U C45A]: the self-cleavage came out at 0.01.

For the variant GGCAGAGCUCGAGAUAGCGUGGCAAAGUGGCUGUGGCUAGACUGCC [A11G C13G C15U], the self-cleavage turned out to be 0.04.

GGCAGAGCUCGACACAGCGUGGCAAAGUGGCUAUGGCUUGACUGCC [A11G G33A A39U]: the self-cleavage was 0.04.

As to GGCAGAGCUCGACACAGCGUGGCAAAGUGGCUGUGGCUAGGGUGCC [A11G A41G C42G], the self-cleavage stood at 0.01.

For the variant GGCAGAGCUCGACACAGCGUGGCAAAUUGGCUGUGGCUAGACUGUC [A11G G27U C45U], the self-cleavage stood at 0.01.

GGCAGAGCUCGACACAGGGUAGCAACGUGGCUGUGACUAGACUGCC [A11G C18G G21A A26C G36A]: the self-cleavage worked out at 0.04.

As to GGCAGAGCUCGACACAGCGUGGCAAAUUCGGUUUGGCUAGACUGCC [A11G G27U G29C C31G G33U], the self-cleavage is 0.02.

In the case of GGCAGAGCUCGACACAGCGUGGCAAAGUGGCUGACGCUAAACUGCC [A11G U34A G35C G40A], the self-cleavage was 0.02.

Turning to GGCAGAGCUCGAUACAGCGUGGCAAAGUGGCUGUGGCUAGACUUCC [A11G C13U G44U], the self-cleavage came out at 0.03.

As to GGCAGAGCUCGACAGAGCGUGGCAAAGUGGCUGUAUCUAGACUGCC [A11G C15G G35A G36U], the self-cleavage worked out at 0.01.

As for GGCAGAGCUCGACAGAGCGAGGCAAAGUGGCUGUGGCUAGACUGCC [A11G C15G U20A], the self-cleavage worked out at 0.01.

As for GGCAGAGCUCGACACUGCGUGGCAUAGUGGCUGUGGUUAGACUGCC [A11G A16U A25U C37U], the self-cleavage was found to be 0.05.

GGCAGAGCUCGACACAGAAUGGCAUAGUGGUUGUGGCUAGACUGCC [A11G C18A G19A A25U C31U]: the self-cleavage amounted to 0.01.

Consider GGCAGAGCUCGAGACAGCGUGGCAAAGUGGUUGUGGCUAAACUCCC [A11G C13G C31U G40A G44C], for which the self-cleavage worked out at 0.01.

Turning to GGCAGAGCUCGACACAGCGUGGCAAAGUGGUUGUGGCUAGGCUGCC [A11G C31U A41G], the self-cleavage was 0.01.

For the variant GGCAGAGCUCUCCACAGCGUGGCAAAGUGGCUGUGGCUAGAACGCC [A11U A12C C42A U43C], the self-cleavage was 0.02.

GGCAGAGCUCGACACAGCGUGGCAAAAUGGCUGGGGCUAGACUGCC [A11G G27A U34G]: the self-cleavage was 0.01.

Turning to GGCAGAGCUCGACAAAGCGUGGAAAAGUGGCUGUGGCUAGACUGCC [A11G C15A C23A], the self-cleavage was 0.03.

On to GGCAGAGCUCUCCACAGCGUGGCAAAGUGGCGGUGUCUAGACUGCC [A11U A12C U32G G36U], for which the self-cleavage is 0.03.

For GGCAGAGCUCGAUACAGCGUGGCAAAGUGGUUGUGGCUAGACUGCC [A11G C13U C31U], the self-cleavage was 0.02.

For the variant GGCAGAGCUCGAAACAGCGCGUGAAAGUGGCUGUGGCUAGAGUGCC [A11G C13A U20C G22U C23G C42G], the self-cleavage amounted to 0.01.

As for GGCAGAGCUCGACACCGCGUGGCAAAGUGGCUGUGGCGAGACUGCC [A11G A16C U38G], the self-cleavage was 0.

Regarding GGCAGAGCUCGACACAGCGUGGCAAAGCGGCCGUGGCUAGAAUGCC [A11G U28C U32C C42A], the self-cleavage stood at 0.01.

As to GGCAGAGCUCGACACAGCGUGACAAAGUGGCUGUGGCCAGAUUGCC [A11G G22A U38C C42U], the self-cleavage amounted to 0.04.

Regarding GGCAGAGCUCGACACUGCGUGGCAAAGUGGCUGAGGCUAGACUGCC [A11G A16U U34A], the self-cleavage was determined as 0.02.

In the case of GGCAGAGCUCGACACAGCGAGGCAAAGUGGAUGUGUCUUGACGGAC [A11G U20A C31A G36U A39U U43G C45A], the self-cleavage came out at 0.

As to GGCAGAGCUCGAAACAGCGUGGCAAAGUGGCUUUGGCUAGACUGCC [A11G C13A G33U], the self-cleavage stood at 0.06.

Take GGCAGAGCUCGACACAGCAUGGCAAAGUGUCUGUGGCUUGACUGUC [A11G G19A G30U A39U C45U]: the self-cleavage was 0.05.

For the variant GGCAGAGCUCUACCCAGCGUGGCAAAGUGGCUGUGGCUAGACUACC [A11U A14C G44A], the self-cleavage is 0.01.

GGCAGAGCUCGACACAGCGUGGCAAAGUGGAUGUGGCUAGACUGAC [A11G C31A C45A]: the self-cleavage is 0.

Regarding GGCAGAGCUCGACACAGCGUGGCAGAGUGGCUGUGGCCAGACUGCC [A11G A25G U38C], the self-cleavage came to 0.01.

In the case of GGCAGAGCUCGACACAGCGUGUCAUAGUGGCUGUGGCUAGACUGCC [A11G G22U A25U], the self-cleavage was found to be 0.04.

In the case of GGCAGAGCUCGACACACCGUGGCAAAGUGGGUGUGGCUAGACUGCC [A11G G17C C31G], the self-cleavage was 0.04.

Turning to GGCAGAGCUCUACUCAGCGUUGCAAAGUGGCUGUGGCUAGACUGCC [A11U A14U G21U], the self-cleavage amounted to 0.06.

GGCAGAGCUCGAGACAGCGUGGCAAAGUGACUGUGGCUAGACUGCC [A11G C13G G30A]: the self-cleavage amounted to 0.03.

Turning to GGCAGAGCUCGAGACAGCGUGGCUAAGUGGCUGUGGUUAAGCUGCC [A11G C13G A24U C37U G40A A41G], the self-cleavage came to 0.02.

On to GGCAGAGCUCGACACAGCGUGGCAAAGCGGCUGUGGCUAGAGUGCC [A11G U28C C42G], for which the self-cleavage stood at 0.

In the case of GGCAGAGCUCGACACAGCGUGGCAAAGUCGCUGUGGAUAGACUGCC [A11G G29C C37A], the self-cleavage was determined as 0.

GGCAGAGCUCGACAUAGCGUGGCAAAGUGGCUGCGGCUAGACUGGC [A11G C15U U34C C45G]: the self-cleavage is 0.02.

Turning to GGCAGAGCUCUCCACGGCGUGGCAAAGUGGCUGUGGCGAGCCUGCC [A11U A12C A16G U38G A41C], the self-cleavage amounted to 0.

On to GGCAGAGCUCUUCACAGCGUGGCAAAAUGGCUGUGGUUAGACUGCC [A11U A12U G27A C37U], for which the self-cleavage is 0.

With GGCAGAGCUCUUCACAGCGUGGCAAAGGGGCUGUGGCUAGACUGCU [A11U A12U U28G C46U], the self-cleavage amounted to 0.01.

For GGCAGAGCUCUACUCAGCGUGGCAAAGUGGCUGUUGCUAGACUGCC [A11U A14U G35U], the self-cleavage was found to be 0.01.

For GGCAGAGCUCGACACAAAGUGGCAAAGUGGCUGUGGAUAGACUUCC [A11G G17A C18A C37A G44U], the self-cleavage came out at 0.04.

On to GGCAGAGCUCGACACAGCGUGGCAAAGUGGCUGUAGCUAUACUGCC [A11G G35A G40U], for which the self-cleavage was found to be 0.

Consider GGCAGAGCUCGACACAGCGUGGCAGAGUGGCUGUGGCUAGGCUGCU [A11G A25G A41G C46U], for which the self-cleavage turned out to be 0.02.

Consider GGCAGAGCUCGACACAGCGUAGCAAAAAGGCUGUGGCUAGACUGCC [A11G G21A G27A U28A], for which the self-cleavage came out at 0.

GGCAGAGCUCGACUCAGCGUGGCAAAGUUGCUGUGGCUAGACUGCC [A11G A14U G29U]: the self-cleavage stood at 0.02.

As to GGCAGAGCUCGACACAGCGUGGCAAGGUGGCUGUUGCUAGACUGCC [A11G A26G G35U], the self-cleavage stood at 0.01.

With GGCAGAGCUCGACACAGCGUGGCAAAGUGGAUGUGGGUAGACUGCC [A11G C31A C37G], the self-cleavage is 0.01.

GGCAGAGCUCGAUACAGCGUGGCAAAGUGGCUGUAGCUAGACUGCC [A11G C13U G35A]: the self-cleavage worked out at 0.23.
